# Assay results from the supplement of paper PMC11417369.
# The list shows a part of the results.
# System: PF3D7_0420300 AP2 domain 1 (GST-tagged)
# Assay: gcPBM binding intensity (ln(normalized median fluorescence intensity)); higher = stronger DNA binding
# Outline: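 For binding intensity, the highest Masliner-normalised natural-log median intensity across replicate spots of either probe orientation was taken. Protein bound to the array was stained with Alexa488 anti-GST antibody and scanned at 488 nm. The protein, GST-tagged P. falciparum DNA-binding domains from E. coli at about 25 μg on average, had been applied for 1 h to an Agilent 4 × 180k array of primer-extended double-stranded 36-bp intergenic genomic probes and negative controls.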
row,Sequence,gcPBM binding intensity (ln)
1,TATACCTATAAATACACACACATATAAATAAATATA [CACACA_site6153],9.99
2,AAAATATATACTCCATCACACACCAAAAAGAAAAAA [CACACA_site2542],9.63
3,TTTTAATGTACCAGTGTGCACCTTGCGTACATATTA [GTGCAC_site9957],9.2
4,ATTCAAAAGATGTATACACACATGTGTATAATATAA [CACACA_site7197],9.57
5,AATAATATATATATAATACACACTATTATAATCACA [CACACA_site1310],9.58
6,TCCTTTATTTTTAAAGTGCATATACATGTACATTAT [GTGCAC_site9445],9.13
7,GAAGAAAAAAAATATACACACATACGATCATACATA [CACACA_site5227],9.87
8,CAGCTCTTAAGAATTACACACATATACACATATATA [CACACA_site7524],9.58
9,ATACATAAATACAAACGTACATACATACATACATAC [XGTACX_site7824],9.36
10,GCAACACAAAAAATTACACACAAAAAAAATATATTA [CACACA_site916],9.64
11,TTAAGGCATCAACATAGTACAATTTTTCTATAATAA [XGTACX_site1114],9
12,ATTTAATACAAATACACACACAAATAAATACAGATA [CACACA_site5956],10.2
13,TTTATAATTCTTACAACACACAATGTACTTTTATAT [CACACA_site8340],9.43
14,TTTATTTCCTTTTTGTGTACATATATATGTAATTCA [XGTACX_site1718],9.32
15,ATTCTACGCACGCGCACACACAACAAAAAAAAAAAA [CACACA_site3538],9.41
16,GTGATGGTACAATATACACACTTAAAAAAAAAAAAT [CACACA_site5360],9.26
17,CATGTGTGATAATGATGTACTATATTAAGCTAGTCC [XGTACX_site2690],9.29
18,TATATACATATATATTGTACTTATTTTTATAATGTC [XGTACX_site3453],9.27
19,TTTTTGTTAACAATGGGTACAAAAAAAAGGAAAATA [XGTACX_site7466],9.16
20,CCCAAAAAATATCATAGTACTCAACATGACTACTAT [XGTACX_site7838],9.16
21,AATTTTGTATAGGTATCACACATGAAATATATTATT [CACACA_site5526],9.35
22,AAATAAAATAATAAAACATGCAAAAATAATGATTTA [TGCATGCA_site415],9.49
23,ATAAAGATTAACAAAGTGCATTTATATATATAATCT [GTGCAC_site9407],9.25

row,Sequence,gcPBM binding intensity (ln)
1,ATAAAAGATATGTATATGTATATGTATATATATATA [TGCATGCA_negctrl_site214],9.2
2,TATAAATAAATAGATACACACATATTTATAAATACA [CACACA_site6219],9.56
3,GCTTAAGGTAAATATAAAATATAGTGTATACTTTAG [XGTACX_negctrl_site585],9.04
4,TTACGCTGCTATATAGTGCACATAATATATGACCTG,9.14
5,ACTTAGGAAATAAAACGTACATTAAATATATACATA [XGTACX_site2990],9.17
6,TTTTATTTATTATTATGTACACACTATATTAAAACA [XGTACX_site1265],9.27
7,TGAATAATCAATAGTACACACATATAAATATAAATA [CACACA_site7345],9.66
8,GTATGTATGTATGTATGTACTTATTAATCAGTAAAA [XGTACX_site3844],9.12
9,CAATATATTATATGGGTGCAAACCACATATAAATAA,9.11
10,TTAGGTATATATAAACGTACTCACAATATCATATAA [XGTACX_site8743],9.31
11,TATATATACTTTTATGTACACACCTATAATATGGGT [CACACA_site1759],9.35
12,AAATGTAATAATAAATGTACAAACATATATATGTAT [XGTACX_site8718],9.38
13,AAGTTTAAAATCTTTGCACACATATAAATAAATATA [CACACA_site2554],9.26
14,ATAAATAAATAAAAAAGTACATTTCCACTTTTAACA [XGTACX_site81],9.2
15,TGCACCCACCAACACACACACAACTAAAAAATAATG [CACACA_site2566],9.86
16,ACATATTAAATATGAGTGCAATATATATATATATAA,9.18
17,TATAATTATATAAATTGTACATAAAAAGTTTTTACT [XGTACX_site3621],9.07
18,TATTATATCTTTTCAAGTACACATAACATACTTATT [XGTACX_site1081],9.31
19,TTGTAATAAATAAAAGTGCATATATGGTTCCACTAT [GTGCAC_site9944],9.19
20,AAGTATGTATCACAAAGTACTTAAGCATATATTTAA [XGTACX_site4121],9.19
21,TAAATATATTGGAGAGGTACACTTTTGGCATTGAAA [XGTACX_site8447],9.18
22,TTATTTTTTTATTCATGTACACAAGAACATTTCATT [XGTACX_site5744],9.01
23,TACAAATATGGACACACACACATATATATATATATA [CACACA_site4488],9.97

row,Sequence,gcPBM binding intensity (ln)
1,GTATATATAATGTGCCGTACATTTATATATTCAATA [XGTACX_site1051],9.14
2,GTATAATAGAAACACACACACACACCCAAAAAAAAA [CACACA_site2010],10.3
3,TTAAATGTAATATAATGTACGGATATTTACCATAAA [XGTACX_site1472],9.24
4,TATTTCTTATTACATACACACATATACATAGATGAC [CACACA_site5729],9.55
5,TCTTGTCTACCTTGTATTTAATATTTACATATATAA [TGCATGCA_negctrl_site320],9.52
6,TATTTGTAAAAATTGTGTACTTAGAAAATTCCAAAA [XGTACX_site6007],8.93
7,TATATGTTTTTATGTACACACTTTTAACCTAAGAAA [CACACA_site4769],9.32
8,TTCTTGTATATATTTTGTACATATATACCATTTTAG [XGTACX_site2409],9.55
9,AAATGTATAGGAATAATAATAAAAAAAAAAAAAAAT [CACACA_negctrl_site1793],9.49
10,ATCATTCCACTTTTCACACATATCTCTATTTCTATC [CACACA_site4723],9.74
11,AAAAAAAATAAAATAATAAAAATTATGAATATATAT [CACACA_negctrl_site280],9.29
12,TGGAGGTCAGTTCACAGTACCCAGTAACTCTACGGA [XGTACX_site2549],8.96
13,ATAGGTAATAATAATACACACGGTGAAATATAGATG [CACACA_site9336],9.82
14,AATAAAATGCAATACATTTTGTTATATAATGTTGTT [CACACA_negctrl_site1525],9.22
15,CACAATGTAGTGTATAAATACAATAAAAGGTTGTAT [CACACA_negctrl_site700],9.4
16,ATATTGTAAGTAAACACACACACATATATCTGTATA [CACACA_site4541],9.86
17,TAAAGTGTAAAATTCACACACATATATATATATATA [CACACA_site4883],9.32
18,ATTTTTTTTATTATTACACACATATAATAAAAAAAT [CACACA_site1802],9.27
19,ATTTTTTTTTTCTTTTTTTTTTGTTTTTCTCCTTTT [CACACA_negctrl_site1182],9.5
20,GTATAATTTATTGAACGTACACATATATATATGTAT [XGTACX_site1395],9.39
21,GTAAAATTTACATAGAGTACTTATATTTTTTTCTGC [XGTACX_site3414],8.96
22,CACAAATATACAAATACACACAAATATACAAATACA [CACACA_site2385],10
23,CAGTTTACTAATATTGCACACGAATATGAAAAAGAG [CACACA_site8941],9.45

row,Sequence,gcPBM binding intensity (ln)
1,TTATCATTTGCCATTGTGCACTTATATGCTCACATT,9.32
2,TTTTTTTTTCAAGAGGTGCGTGTATTTTAACAAAAA,9.03
3,AAAAAAAATTATGAAGTGCATTAGTGAATTTGATTG,9.24
4,TTTTTCACACTTCAAAAGTGTCAACCTTCTATTCTC [TGCATGCA_negctrl_site489],9.15
5,TTGTCTACAAAAATGTGCTTCTAATCATACGACTTG [CACACA_negctrl_site46],8.97
6,TACATATATTATTGCACACATATAAAATACCCCCAA [CACACA_site3895],9.82
7,TATATTTTAATTTGAAGTACTAATATTTATTTATAT [XGTACX_site7458],8.96
8,TATAACCATATATACACACACATATAAATATAAATA [CACACA_site7089],9.78
9,AAGGTGGAAACAATTACACACACACTAAAAAAAAAA [CACACA_site7493],9.96
10,ATATATATATATTTCGTGCACTGATAATATTATTTT,9.33
11,ATGAAAAAAAATAAAAAATATATATATATATATATA [CACACA_negctrl_site236],8.94
12,AAACTTTTTTTAAAAACACACATATAGATTTATATA [CACACA_site7842],9.21
13,TAGTTTTTTATATATTGTACAAATGATATATTATAT [XGTACX_site1002],9.23
14,TATTTTTAAACAAAACTGTATTTATTTTTTAAAATT [CACACA_negctrl_site1449],8.84
15,TTTTGTTATTTTTGTATGCACTACATATTATTATAT,9.59
16,ATATATATATATAATTGTACATTTTTATGTTTTATA [XGTACX_site4560],9.41
17,GAAATTAAAAAATTTATGCACACTTTAAAAAAAAAA [CACACA_site3769],9.08
18,TTCATTAAAATTATTACACACAGTTCTTCAACCAAA [CACACA_site3504],9.31
19,ATATGTAGTTTTTATTGTACGTGTAGAAGAAATAAT [XGTACX_site6608],9.43
20,AATGATTTTCAATCGAAATGAAACTTAGAAGATATA [CACACA_negctrl_site1475],9.01
21,TTTTAAACAGGACACACACACATATAGATTTATATA [CACACA_site6560],9.93
